Measured values taken from PubChem BioAssay (NCATS).
This list was built around the results that the source calls inconclusive (neither active nor inactive); the mix of calls is not that of the screen. Potencies of inconclusive entries are doubtful fits and often do not repeat. Activity calls are given as the source filed them. The call rests on the fitted dose curve; in most records, active means well fitted cell-killing curve with a large enough effect; inconclusive means small, poorly fitted or top-dose-only effect, or effect the other way; inactive means no such curve, though single readings can be large or run the other way.

experiment: Quantitative High-Throughput drug screen in 47 multiple myeloma cell lines against the NCATS MIPE library collection: PE2_PLB cell viability assay (AID 1919869); details: PE2_PLB myeloma cells viability, ATP luminescence, 48 h; viability (% of control): at 45.8 µM (top of the series); further: nearly all actives have a fitted effect of over 35% in size;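 on viability (% of control): 100% = DMSO-only wells and 0% = cell-free media-only wells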
In short: (§1)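 Inhibition of viability over 48 h was scored by ATP content (CellTiter-Glo) in 500-cell wells. Zero and full viability were defined by media-only and DMSO-only wells.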
Potency means the concentration at half of the fitted maximal effect; tags describe the fitted curve by direction and shape.

Row | Compound | Potency | viability (% of control)
1 | C=CC(=O)Nc1cccc(Sc2nc(Nc3ccc(N4CCN(C)CC4)cc3)ncc2Cl)c1 | inconclusive: 2.09 µM [cytotoxic, full curve, poor fit] | –
2 | NC(CO)(CO)CCc1ccc(Sc2cccc(OCc3ccccc3)c2)cc1Cl | active: 13.2 µM | –
3 | C=C1C(=O)[C@@]23C(CC[C@@H]1[C@H]2O)[C@@]12CO[C@]3(O)[C@@H](O)[C@@H]1C(C)(C)CC[C@@H]2O (some centres undefined) | active: 1.18 µM | –
4 | Cc1nc(NC(=O)N2CCC[C@@H]2C(N)=O)sc1-c1ccnc(C(C)(C)C(F)(F)F)c1 | active: 4.69 µM | –
5 | Cc1cc(C(C)(C)C)c(O)c(C)c1CC1=NCCN1 | – | inactive: 116%
6 | O=C1NC(=O)C(c2ccccc2[N+](=O)[O-])=C1Nc1ccc(O)c(Cl)c1 | inconclusive: 16.6 µM [cytotoxic, partial curve] | –
7 | Cc1oncc1C(=O)Nc1ccc(C(F)(F)F)cc1 | – | inactive: 91.4%
8 | Clc1ccc2nsnc2c1NC1=NCCN1 | inconclusive: 9.35 µM [rising, partial curve, poor fit] | –
9 | CC(C)c1ccc2oc3nc(N)c(C(=O)O)cc3c(=O)c2c1 | – | inactive: 85.5%
10 | C[N+]1(C)[C@@H]2C[C@@H](OC(=O)C(O)(c3cccs3)c3cccs3)C[C@H]1[C@@H]1O[C@@H]12 | – | inactive: 112%
11 | C[C@H](NC(=O)[C@@H](O)c1cc(F)cc(F)c1)C(=O)N[C@@H]1C(=O)N(C)c2ccccc2-c2ccccc21 | inconclusive: 20.9 µM [cytotoxic, partial curve, poor fit] | –
12 | CC(=Cc1ccccc1)C=C1SC(=S)N(CC(=O)O)C1=O | – | inactive: 135%
13 | CN(C)c1ccc2nc3ccc(=[N+](C)C)cc-3sc2c1 | active: 3.72 µM | –
14 | NC1CCC(Nc2nc(Nc3ccc(C(=O)N4CCCCC4)cc3)c3ncn(-c4cccc(F)c4)c3n2)CC1 (centres undefined) | – | inactive: 99.4%
15 | Cc1ccc(F)c(NC(=O)Nc2ccc(-c3cccc4[nH]nc(N)c34)cc2)c1 | inconclusive: 37.2 µM [cytotoxic, partial curve, poor fit] | –

experiment: Quantitative High-Throughput drug screen in 47 multiple myeloma cell lines against the NCATS MIPE library collection: PCM6_Riken cell viability assay (AID 1919870); details: CellTiter-Glo ATP, 48 h; viability (% of control): at 45.8 µM (top of the series); further: nearly all actives have a fitted effect of over 30% in size;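 on viability (% of control): 100% = DMSO-only wells and 0% = media-only wells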
In short: as §1

Row | Compound | viability (% of control) | Potency
16 | O=C(O)c1cccc(-c2noc(-c3ccccc3F)n2)c1 | inactive: 93.8% | –
17 | C=C1C(=O)[C@@]23C(CC[C@@H]1[C@H]2O)[C@@]12CO[C@]3(O)[C@@H](O)[C@@H]1C(C)(C)CC[C@@H]2O (some centres undefined) | – | active: 1.66 µM
18 | Cc1oncc1C(=O)Nc1ccc(C(F)(F)F)cc1 | inactive: 100% | –
19 | COc1cc2c(cc1OC)CN(CCc1ccc(NC(=O)c3cc(OC)c(OC)cc3NC(=O)c3cnc4ccccc4c3)cc1)CC2 | – | active: 18.7 µM
20 | O=C(Nc1ccccc1)Nc1ccc(-c2ccc(C(=O)[C@H]3CCC[C@H]3C(=O)O)cc2)cc1 | – | inconclusive: 0.935 µM [cytotoxic, full curve, poor fit]
21 | NC1CCC(Nc2nc(Nc3ccc(C(=O)N4CCCCC4)cc3)c3ncn(-c4cccc(F)c4)c3n2)CC1 (centres undefined) | – | inconclusive: 10.5 µM [cytotoxic, partial curve, poor fit]
22 | CC(C)(C)Cn1c(N)nc2ccc(-c3[nH]c(C(C)(C)C)nc3-c3ccc(F)cc3)nc21 | – | inconclusive: 26.4 µM [cytotoxic, single point]
23 | Cc1ccc(F)c(NC(=O)Nc2ccc(-c3cccc4[nH]nc(N)c34)cc2)c1 | – | active: 23.5 µM
24 | CC(O)=C(C#N)C(=O)Nc1ccc(C(F)(F)F)cc1 | – | active: 20.9 µM
25 | CNS(=O)(=O)CCc1ccc2[nH]cc(C3CCN(C)CC3)c2c1 | inactive: 104% | –

experiment: Quantitative High-Throughput drug screen in 47 multiple myeloma cell lines against the NCATS MIPE library collection: RPMI8226_ATCC cell viability assay (AID 1919871); details: RPMI8226 myeloma viability, CellTiter-Glo ATP luminescence, 48 h; series mostly up to 45.8 µM; viability (% of control): at the top concentration; further: nearly all actives have a fitted effect of over 30% in size
In short: as §1

Row | Compound | viability (% of control) | Potency
26 | O=C(O)c1cccc(-c2noc(-c3ccccc3F)n2)c1 | inactive: 121% | –
27 | C=CC(=O)Nc1cccc(Sc2nc(Nc3ccc(N4CCN(C)CC4)cc3)ncc2Cl)c1 | – | inconclusive: 37.2 µM [cytotoxic, single point]
28 | C=C1C(=O)[C@@]23C(CC[C@@H]1[C@H]2O)[C@@]12CO[C@]3(O)[C@@H](O)[C@@H]1C(C)(C)CC[C@@H]2O (some centres undefined) | – | active: 11.8 µM
29 | Cc1nc(NC(=O)N2CCC[C@@H]2C(N)=O)sc1-c1ccnc(C(C)(C)C(F)(F)F)c1 | – | active: 3.32 µM
30 | Cc1cc(C(C)(C)C)c(O)c(C)c1CC1=NCCN1 | – | inconclusive: 0.0017 µM [rising, full curve, poor fit]
31 | O=C1NC(=O)C(c2ccccc2[N+](=O)[O-])=C1Nc1ccc(O)c(Cl)c1 | – | inconclusive: 0.0187 µM [rising, full curve]
32 | CCCCCCCCOc1ccccc1C(=O)Nc1ccc(C(=O)OCC[N+](C)(CC)CC)cc1 | – | inconclusive: 18.7 µM [cytotoxic, partial curve]
33 | Cc1oncc1C(=O)Nc1ccc(C(F)(F)F)cc1 | – | inconclusive: 6.62 µM [cytotoxic, partial curve, poor fit]
34 | CC(C)c1ccc2oc3nc(N)c(C(=O)O)cc3c(=O)c2c1 | inactive: 102% | –
35 | O=C(O)c1cc(O)c2c(c1)C(=O)c1cccc(O)c1C2=O | – | active: 42.9 µM
36 | O=C1NC(=O)C(=Cc2ccc(-c3ccc(F)cc3)o2)S1 | – | inconclusive: 37.2 µM [cytotoxic, single point]
37 | O=C(NOCC1CC1)c1ccc(F)c(F)c1Nc1ccc(I)cc1Cl | – | inconclusive: 23.5 µM [cytotoxic, partial curve]
38 | CC(C)(C)Cn1c(N)nc2ccc(-c3[nH]c(C(C)(C)C)nc3-c3ccc(F)cc3)nc21 | – | inconclusive: 20.9 µM [cytotoxic, partial curve]
39 | Cc1ccc(F)c(NC(=O)Nc2ccc(-c3cccc4[nH]nc(N)c34)cc2)c1 | – | inconclusive: 33.2 µM [cytotoxic, single point]
40 | CC(C)C[C@@H](C(=O)N[C@H](C(=O)OC1CCCC1)c1ccccc1)[C@H](O)C(=O)NO | – | inconclusive: 6.62 µM [cytotoxic, partial curve]
41 | O=C1CCCC2=C1C(c1[nH]ncc1Cl)N=C(Nc1nc3ccccc3o1)N2 (centres undefined) | – | inconclusive: 2.64 µM [cytotoxic, partial curve, poor fit]
42 | Cc1ccc2nc(NCCN)c3ncc(C)n3c2c1 | – | active: 6.62 µM
43 | O=C(NCC1CCCCN1)c1cc(OCC(F)(F)F)ccc1OCC(F)(F)F (centres undefined) | – | inconclusive: 0.0013 µM [rising, full curve, poor fit]
44 | CNS(=O)(=O)CCc1ccc2[nH]cc(C3CCN(C)CC3)c2c1 | – | inconclusive: 9.35 µM [cytotoxic, partial curve, poor fit]
